Publication PMC5951851
Changes are numbered by the printed parent chain. These are yes or no findings as the source states them, for the method shown. For part of these data: In cells and extracts the contact can be indirect. Some entries that bind do so weakly or less than the wild type. For part of these data: Sequences can lack the tags named with a protein.

Chains of the proteins cited; added tags and fusions are not shown. Lines headed by an entry give the natural chain unless they say otherwise; changes in a name come on top.
UniProt C0LGT6: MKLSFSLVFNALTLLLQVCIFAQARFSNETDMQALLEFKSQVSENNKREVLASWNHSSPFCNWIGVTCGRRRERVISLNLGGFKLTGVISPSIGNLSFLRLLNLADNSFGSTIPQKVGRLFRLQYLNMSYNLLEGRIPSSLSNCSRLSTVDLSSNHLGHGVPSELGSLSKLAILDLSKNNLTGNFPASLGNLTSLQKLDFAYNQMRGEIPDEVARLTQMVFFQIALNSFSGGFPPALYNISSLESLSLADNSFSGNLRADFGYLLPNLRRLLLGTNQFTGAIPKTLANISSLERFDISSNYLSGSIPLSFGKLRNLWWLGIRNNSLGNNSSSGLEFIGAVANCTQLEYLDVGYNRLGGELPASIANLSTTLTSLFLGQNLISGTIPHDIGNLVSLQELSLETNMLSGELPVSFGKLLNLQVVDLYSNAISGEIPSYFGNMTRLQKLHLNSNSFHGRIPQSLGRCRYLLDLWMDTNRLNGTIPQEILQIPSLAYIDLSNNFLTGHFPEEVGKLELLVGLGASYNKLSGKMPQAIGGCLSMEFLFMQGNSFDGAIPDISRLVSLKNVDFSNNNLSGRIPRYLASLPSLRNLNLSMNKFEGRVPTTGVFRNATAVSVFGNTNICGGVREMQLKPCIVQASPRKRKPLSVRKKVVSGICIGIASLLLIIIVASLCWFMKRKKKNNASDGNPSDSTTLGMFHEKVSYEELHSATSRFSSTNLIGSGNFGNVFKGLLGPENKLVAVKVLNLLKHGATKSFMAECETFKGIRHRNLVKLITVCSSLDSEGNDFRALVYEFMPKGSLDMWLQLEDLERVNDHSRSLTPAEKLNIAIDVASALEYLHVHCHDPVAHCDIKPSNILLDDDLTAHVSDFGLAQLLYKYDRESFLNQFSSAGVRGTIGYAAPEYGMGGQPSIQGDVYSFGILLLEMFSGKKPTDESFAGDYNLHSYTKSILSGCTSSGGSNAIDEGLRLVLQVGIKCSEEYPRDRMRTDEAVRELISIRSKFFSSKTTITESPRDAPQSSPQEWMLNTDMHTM
UniProt Q9FL28: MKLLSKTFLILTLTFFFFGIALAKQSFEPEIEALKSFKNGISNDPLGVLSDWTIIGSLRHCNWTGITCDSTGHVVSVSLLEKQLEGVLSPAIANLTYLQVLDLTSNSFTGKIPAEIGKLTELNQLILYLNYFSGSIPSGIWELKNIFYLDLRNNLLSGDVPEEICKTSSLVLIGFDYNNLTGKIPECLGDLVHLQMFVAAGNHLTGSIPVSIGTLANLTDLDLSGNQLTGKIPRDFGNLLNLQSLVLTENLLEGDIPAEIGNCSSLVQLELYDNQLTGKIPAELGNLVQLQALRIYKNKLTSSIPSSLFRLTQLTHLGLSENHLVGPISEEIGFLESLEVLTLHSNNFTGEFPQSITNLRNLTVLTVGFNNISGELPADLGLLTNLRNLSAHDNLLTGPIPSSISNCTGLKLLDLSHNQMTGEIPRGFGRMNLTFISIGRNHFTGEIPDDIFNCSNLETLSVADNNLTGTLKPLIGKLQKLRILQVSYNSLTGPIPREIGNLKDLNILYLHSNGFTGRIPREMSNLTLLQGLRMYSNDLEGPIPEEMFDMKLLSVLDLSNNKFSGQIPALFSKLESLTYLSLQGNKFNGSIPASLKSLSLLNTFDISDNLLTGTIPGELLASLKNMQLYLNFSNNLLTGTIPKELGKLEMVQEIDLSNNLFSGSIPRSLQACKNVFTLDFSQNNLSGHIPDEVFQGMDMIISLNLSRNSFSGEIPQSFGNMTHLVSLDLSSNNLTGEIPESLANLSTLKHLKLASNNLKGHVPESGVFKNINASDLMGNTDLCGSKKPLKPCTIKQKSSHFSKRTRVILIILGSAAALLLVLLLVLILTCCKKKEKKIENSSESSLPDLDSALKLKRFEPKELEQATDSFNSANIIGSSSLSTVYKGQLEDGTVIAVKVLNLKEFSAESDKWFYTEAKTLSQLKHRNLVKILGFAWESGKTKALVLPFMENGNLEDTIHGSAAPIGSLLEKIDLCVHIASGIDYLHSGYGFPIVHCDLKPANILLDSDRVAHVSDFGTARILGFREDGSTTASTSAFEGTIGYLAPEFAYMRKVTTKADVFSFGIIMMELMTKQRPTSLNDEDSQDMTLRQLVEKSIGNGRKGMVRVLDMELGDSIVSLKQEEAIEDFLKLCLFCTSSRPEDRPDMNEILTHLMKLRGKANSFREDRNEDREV

Columns and labels:
[1] = biological target: RGS1 (luciferase complementation fusion) (Arabidopsis thaliana) (UniProt Q8H1F2); experiment: split reporter; luciferase complementation; Nluc and Cluc constructs co-expressed in N. benthamiana leaves by Agrobacterium; leaf disks after 2 days with 1 mM luciferin; with or without flg22, elf18 or chitin
[2] = biological target: T1, RGS1CT (recombinant, GST pull-down) (Arabidopsis thaliana) (UniProt Q8H1F2); experiment: pull-down; GST pull-down; 5 μg GST- and HIS-tagged proteins with glutathione agarose beads in 25 mM Tris-HCl, 100 mM NaCl, 1 mM DTT, pH 7.5, 1 h at 4 °C; washed with 300 mM NaCl; anti-HIS immunoblot; both purified
T1 sequence: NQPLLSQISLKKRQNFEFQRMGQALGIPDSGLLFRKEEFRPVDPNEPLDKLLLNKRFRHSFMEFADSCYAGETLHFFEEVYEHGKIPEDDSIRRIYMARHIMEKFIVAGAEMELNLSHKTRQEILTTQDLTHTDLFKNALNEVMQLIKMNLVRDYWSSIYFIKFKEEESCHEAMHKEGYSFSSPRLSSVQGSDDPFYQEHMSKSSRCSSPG

[3] = biological target: T2, GPA1-FLAG (Arabidopsis thaliana) (UniProt P18064); experiment: co-IP; Arabidopsis protoplasts (Col-0 or rgs1-2) transfected, with or without 1 μM flg22 for 5 min, with or without co-expressed RGS1 variants; extraction buffer 50 mM HEPES pH 7.5, 150 mM KCl, 10 mM EDTA, 0.5% Triton X-100, 1 mM DTT; anti-FLAG M2 agarose, eluted with 3×FLAG peptide; anti-HA and anti-FLAG immunoblots
T2 sequence: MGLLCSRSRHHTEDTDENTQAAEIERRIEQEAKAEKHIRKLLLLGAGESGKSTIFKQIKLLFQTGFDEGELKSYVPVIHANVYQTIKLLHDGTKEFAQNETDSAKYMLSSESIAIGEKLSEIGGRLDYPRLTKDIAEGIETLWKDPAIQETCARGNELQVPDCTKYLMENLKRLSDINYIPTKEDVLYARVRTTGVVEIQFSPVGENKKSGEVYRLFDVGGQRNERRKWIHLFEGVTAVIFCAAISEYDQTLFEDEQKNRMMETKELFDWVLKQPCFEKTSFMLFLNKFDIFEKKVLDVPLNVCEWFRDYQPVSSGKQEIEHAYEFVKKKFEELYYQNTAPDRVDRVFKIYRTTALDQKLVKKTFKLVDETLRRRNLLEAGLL

[4] = biological target: T3, RGS1CT^S431A-FLAG (Arabidopsis thaliana) (UniProt Q8H1F2); experiment: as above
T3 sequence: T1 sequence with S183A

[5] = biological target: T4, RGS1CT-FLAG (Arabidopsis thaliana) (UniProt Q8H1F2); experiment: as above
T4 sequence: T1 sequence

Substance: EFR (luciferase complementation fusion) (from UniProt C0LGT6 25-1031) (receptor)
- binding [1]: binds

Substance: EFR kinase domain (EFRKD) (from UniProt C0LGT6 712-1001) (domain or fragment)
- binding [2]: binds

Substance: FLS2 kinase domain (FLS2KD) (from UniProt Q9FL28 870-1155) (domain or fragment)
- binding [2]: binds

Substance: FLS2-HA (from UniProt Q9FL28 24-1173) (receptor)
- binding [3]: binds
- binding [4]: binds
- binding [5]: binds
